The results in this text go back to patent US20200079801A1, “TRISUBSTITUTEDSILYLBENZYLBENZIMIDAZOLES AND ANALOGUES” (Bayer Aktiengesellschaft, priority 2017, published 2020).

How the values of this data set were obtained:
In table 1, the logP values were determined in accordance with EEC Directive 79/831 Annex V.A8 by HPLC (High Performance Liquid Chromatography) on a reversed-phase column (C 18), using the method described below:
temperature: 40° C.; mobile phases: 0.1% aqueous formic acid and acetonitrile; linear gradient from 10% acetonitrile to 95% acetonitrile;
Calibration was carried out using unbranched alkan-2-ones (comprising 3 to 16 carbon atoms) with known logP values (determination of the logP values by the retention times using linear interpolation between two successive alkanones). lambda-max-values were determined using UV-spectra from 200 nm to 400 nm and the peak values of the chromatographic signals.

For `C[Si](C)(c1ccc(Cl)nc1)c1ccccc1Cn1cnc2cccc(Cl)c21` [I.36], the logP was found to be 3.72.

`Cc1nc2c(F)c(F)ccc2n1Cc1ccccc1[Si](C)(C)c1ccc(Cl)nc1` [I.44] had a logP of 3.92.

For the molecule `C[Si](C)(c1cccs1)c1ccccc1Cn1cnc2cccc(F)c21` [I.07], the logP is on record as 3.87.

`Cc1nc2ccccc2n1Cc1ccccc1[Si](C)(C)c1ccccc1` [I.03] had a logP of 2.50.

`Cc1cc2nc(C)n(Cc3ccccc3[Si](C)(C)Cc3ccccc3)c2cc1C` [I.31] gave a logP of 2.84.

`Cc1nc2cccc(F)c2n1Cc1ccccc1[Si](C)(C)c1cccs1` [I.15] returned a logP of 3.46.

Molecule `C[Si](C)(c1cccs1)c1ccccc1Cn1cnc2c(F)cccc21` [I.06] gave a logP of 4.10.

`Cc1nc2ccc(F)c(F)c2n1Cc1ccccc1[Si](C)(C)c1cccs1` [I.30] came in with a logP of 4.35.

The molecule `Cc1cc2ncn(Cc3ccccc3[Si](C)(C)c3ccc(Cc4ccccc4)cc3)c2cc1C` [I.52] displayed a logP of 3.51.

As to `Cc1nc2ccccc2n1Cc1ccccc1[Si](C)(C)c1ccc(Cl)nc1` [I.26], the lipophilicity (logP) amounted to 2.10.

In turn, `Cc1cc2ncn(Cc3ccccc3[Si](C)(C)c3ccccc3)c2cc1C` [I.09] displayed a logP of 2.71.

For `C[Si](C)(c1ccccc1)c1ccccc1Cn1cnc2c(C(F)(F)F)cccc21` [I.34], the logP was 4.93.

With `C[Si](C)(Cc1ccccc1)c1ccccc1Cn1cnc2cccnc21` [I.57], the logP amounted to 3.31.

In the case of `C[Si](C)(c1ccc(Cl)nc1)c1ccccc1Cn1cnc2ccccc21` [I.13], the logP is reported as 2.08.

With `C[Si](C)(Cc1ccccc1)c1ccccc1Cn1cnc2ncccc21` [I.56], the logP was 3.98.

Turning to `Cc1cc2nc(C)n(Cc3ccccc3[Si](C)(C)c3cccs3)c2cc1C` [I.22], the logP came to 2.58.

The molecule `Cc1cc2nc(C)n(Cc3ccccc3[Si](C)(C)c3ccc(Cl)cc3)c2cc1C` [I.41] displayed a logP of 2.86.

`C[Si](C)(c1ccc(Cl)nc1)c1ccccc1Cn1cnc2c(Cl)cccc21` [I.35] had a logP of 3.65.

As for `C[Si](C)(c1ccc(Cl)cc1)c1ccccc1Cn1cnc2ccccc21` [I.12], the logP is recorded as 2.86.

In turn, `C[Si](C)(c1ccc(Cl)nc1)c1ccccc1Cn1cnc2c(F)cccc21` [I.27] gave a logP of 3.48.

On to `C[Si](C)(c1cccs1)c1ccccc1Cn1cnc2ccc(F)c(F)c21` [I.18], for which the logP is listed as 4.37.

`C[Si](C)(c1ccccc1)c1ccccc1Cn1cnc2cccc(C(F)(F)F)c21` [I.33] registered a logP of 5.11.

In turn, `Cc1cc2nc(C)n(Cc3ccccc3[Si](C)(C)c3ccccc3)c2cc1C` [I.21] had a logP of 2.67.

In turn, `C[Si](C)(c1ccc(Cc2ccccc2)cc1)c1ccccc1Cn1cnc2ccccc21` [I.45] yielded a logP of 3.61.

In turn, `Cc1nc2ccccc2n1Cc1ccccc1[Si](C)(C)c1ccc(Cl)cc1` [I.23] yielded a logP of 2.71.

Molecule `Cc1cc2ncn(Cc3ccccc3[Si](C)(C)c3ccc(Oc4ccccc4)cc3)c2cc1C` [I.54] showed a logP of 3.39.

`C[Si](C)(Cc1ccccc1)c1ccccc1Cn1cnc2ccccc21` [I.04] showed a logP of 3.04.

As for `C[Si](C)(c1ccc(Cl)nc1)c1ccccc1Cn1cnc2cccc(F)c21` [I.28], the logP came out at 3.29.

`Cc1nc2ccccc2n1Cc1ccccc1[Si](C)(C)c1ccc(Oc2ccccc2)cc1` [I.50] registered a logP of 3.18.

On to `C[Si](C)(c1cccs1)c1ccccc1Cn1cnc2cc(F)c(F)cc21` [I.16], for which the logP worked out at 4.20.

`C[Si](C)(c1ccc(Cl)nc1)c1ccccc1Cn1cnc2ccc(F)c(F)c21` [I.38] returned a logP of 3.81.

For the molecule `Cc1cc2ncn(Cc3ccccc3[Si](C)(C)c3ccc(Cl)cc3)c2cc1C` [I.32], the logP amounted to 2.86.

Turning to `C[Si](C)(c1ccccc1)c1ccccc1Cn1cnc2ccccc2c1=O` [I.08], the logP is recorded as 4.32.

In turn, `C[Si](C)(c1cccs1)c1ccccc1Cn1cnc2c(F)c(F)ccc21` [I.17] showed a logP of 4.37.

For the molecule `C[Si](C)(c1cccs1)c1ccccc1Cn1cnc2ccccc21` [I.02], the logP stood at 2.52.

For the molecule `C[Si](C)(Cc1ccccc1)c1ccccc1Cn1c(C(F)(F)F)nc2ccccc21` [I.42], the logP is listed as 5.78.

`Cc1cc2ncn(Cc3ccccc3[Si](C)(C)c3cccs3)c2cc1C` [I.11] yielded a logP of 2.60.

In the case of `Cc1nc2ccccc2c(=O)n1Cc1ccccc1[Si](C)(C)c1ccccc1` [I.19], the logP is listed as 4.54.

Consider `C[Si](C)(c1ccc(Oc2ccccc2)cc1)c1ccccc1Cn1cnc2ccccc21` [I.47], for which the logP is listed as 3.54.

As to `Cc1nc2ccc(F)c(F)c2n1Cc1ccccc1[Si](C)(C)c1ccc(Cl)nc1` [I.43], the logP is listed as 3.76.

Consider `C[Si](C)(Cc1ccccc1)c1ccccc1Cn1cnc2cccc(Cl)c21` [I.25], for which the logP amounted to 4.98.

`C[Si](C)(Cc1ccccc1)c1ccccc1Cn1cnc2c(Cl)cccc21` [I.24]: the logP is recorded as 4.80.

With `Cc1nc2c(F)cccc2n1Cc1ccccc1[Si](C)(C)c1cccs1` [I.14], the logP is 3.84.

`C[Si](C)(c1ccc(Cl)nc1)c1ccccc1Cn1cnc2cc(F)c(F)cc21` [I.39] registered a logP of 3.37.

As to `Cc1nc2ccccc2n1Cc1ccccc1[Si](C)(C)c1cccs1` [I.05], the logP is given as 2.36.

`Cc1cc2nc(C)n(Cc3ccccc3[Si](C)(C)c3ccc(Oc4ccccc4)cc3)c2cc1C` [I.55]: the logP worked out at 3.33.

As for `Cc1cc2ncn(Cc3ccccc3[Si](C)(C)Cc3ccccc3)c2cc1C` [I.20], the logP stood at 3.08.

Turning to `C[Si](C)(c1ccccc1)c1ccccc1Cn1cnc2c(Br)cccc2c1=O` [I.51], the logP was determined as 5.08.

As to `Cc1nc2ccccc2n1Cc1ccccc1[Si](C)(C)c1ccc(Cc2ccccc2)cc1` [I.49], the logP was determined as 3.33.

In turn, `C[Si](C)(c1ccc(Cl)nc1)c1ccccc1Cn1cnc2c(F)c(F)ccc21` [I.37] had a logP of 3.74.

For `Cc1nc2ccccc2n1Cc1ccccc1[Si](C)(C)Cc1ccccc1` [I.10], the logP is given as 2.74.

A word on the logP: it is the decadic logarithm of the partition coefficient of the neutral form, usually between octanol and water. The low end stands for lower lipophilicity, the high end for higher lipophilicity.
